Test results taken from the RNAGym collection of RNA variant scans (doi:10.1093/nar/gkz1192).
The source gives no read counts; variants with many changes may rest on few reads.

B1: CPEB3 Ribozyme (parent)
chain: UAACAGGGGGCCACAGCAGAAGCGUUCACGUCGCAGCCCCUGUCAGAUUCUGGUGAAUCUGCGAAUUCUGCUGUAUAUCUC

Variants of: B1
Assay: self-cleavage, relative activity (ratio to wild type); higher = more cleavage; in vitro, sequencing
Summary of the method: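 Barcoded CPEB3 ribozyme mutants, produced by rounds of error-prone PCR, self-cleaved while being transcribed with T7 RNA polymerase for 5 hours at 37°C and during a subsequent 15 min DNase I step before EDTA was added. Sequencing of template-switched cDNA on Illumina gave cleaved and total reads, and DNA sequencing assigned barcodes to variants. Each variant's relative activity is its cleaved/total read fraction divided by the unmutated ribozyme's fraction, averaged across three batches. A variant needed a minimum of 5 reads.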

Variant	self-cleavage
A21G A28C U69A	0.1
A21G A28G A47G U78C	0.11
A21G A28G A56G G73C	0.13
A21G A28G A56U G61U U67C A77C	0.04
A21G A28G A57U U69A	0.06
A21G A28G C40U U43C U49C C79G	0.01
A21G A28G G30C U72A	0.1
A21G A28G G33A U48C	0.09
A21G A28G G36A A56G	0.25
A21G A28G G52A	0.33
A21G A28G G73A U74A C81U	0.91
A21G A28G U31A G36A U41A A56G A57U	0.06
A21G A28G U31A U51C A75U	0.08
A21G A28G U41A A47G U48C U67C	0.33
A21G A28G U60A A65G U72C A75U U76C	0.16
A21G A28G U67G A77U	0.13
A21G A28G U78C	0.21
A21G A28U A45G U49C	0.2
A21G A35G A45U A47G A65G U72A	0.18
A21G A35G A56G U72C	1.04
A21G A35G C40U	1.11
A21G A35G G55A	0.86
A21G A35G U41G U67G	0.2
A21G A35G U43A U60C C71U	0.45

Variant	self-cleavage
A21G A35G U51A A65G U78C U80C	0.71
A21G A35G U58C G70A	0.29
A21G A35G U78A	1.44
A21G A35U A47G U51C U54A	0.13
A21G A35U A64G U74A U78C	0.1
A21G A35U G46A U51C	0.08
A21G A35U U48C A64G	0.07
A21G A35U U67C U80C	0.08
A21G A35U U76A	0.17
A21G A45C A47G	0.27
A21G A45G A47G U60A	0.17
A21G A45G U49C U60C U78C	0.13
A21G A45G U60C	0.81
A21G A45G U69A U78G	0.16
A21G A45G U76C A77U	0.49
A21G A45U A47G U60A	0.48
A21G A45U A56C	0.12
A21G A45U U48A	0.21
A21G A45U U58C	0.03
A21G A45U U69A	0.34
A21G A47G C68A	0.11
A21G A47G G70A A77G	0.23
A21G A47G U51C U69G U72C	0.1
A21G A47G U76C U80C	0.68

Variant	self-cleavage
A21G A47G U80C	0.61
A21G A56G A57G	0.05
A21G A56G A65U	0.48
A21G A57C A64G U69A	0.34
A21G A57G A65U U74A	0.08
A21G A57G U66C U67A	0.8
A21G A64G U72C U78C	0.55
A21G A64U U66C	0.31
A21G A65G U69C U72A	0.06
A21G A65G U80C	0.38
A21G A75G U80A	0.61
A21G C23A A35G G52U G55A	0.05
A21G C23G A45U C59A A64G C68A C71U	0.04
A21G C23G U25A A64G	0.27
A21G C23G U26A A57G	0.31
A21G C23G U48C U49A	0.32
A21G C23U A28G U43C A64U G70C	0.11
A21G C23U A35G U41C U49C U72A U80C	0.08
A21G C23U C34U U60G	0.13
A21G C23U G30A U51C A64G U78C	0.07
A21G C23U U54C U72C	0.14
A21G C27G U49A	0.07
A21G C27U C34U U76C	0.07
A21G C29A A64U	0.11

Variant	self-cleavage
A21G C29U A77G	0.41
A21G C34A A47G U66C U69C	0.16
A21G C37U U51C U78A	0.55
A21G C38A U51C G63A	0.38
A21G C40A A64U A75U U80C	0.07
A21G C40U A47G U48C A57G	0.19
A21G C40U U72C	0.66
A21G C44A U66C	0.37
A21G C59G U60C	0.05
A21G G22C U43G U60C	0.07
A21G G22C U49C	0.25
A21G G22U A47G C50A U51C U78C	0.23
A21G G22U C62A U69C	0.04
A21G G24A A35G	0.28
A21G G24A U26C U69A U80C	0.11
A21G G24A U43A U80C	0.11
A21G G24A U58C	0.14
A21G G24A U80C	0.28
A21G G30A C40U U67C U69C U72A	0.04
A21G G30A U66C U67C U72C	0.07
A21G G30C A56G	0.2
A21G G30C A57G U76A	0.17
A21G G30C U31C U72C	0.06
A21G G30C U78A	0.27

Variant	self-cleavage
A21G G33A A35U A65U U78C	0.05
A21G G33A A47G U49A	0.07
A21G G33U C34U U51C G55C U66C	0.1
A21G G33U U43A	0.13
A21G G33U U49C G73U	0.11
A21G G36U U80C	0.24
A21G G42A A64G	0.25
A21G G46U U72A	0.1
A21G G53A U76C	0.87
A21G G55C A57G A65G A75G	0.08
A21G G63A U67A	0.15
A21G G63C A77G	0.31
A21G G63C U78C	0.46
A21G G63U G70A	0.12
A21G G63U U67C	0.19
A21G U25A A45U C79U	0.3
A21G U25A G42U U67C	0.1
A21G U25A G70C U78A	0.07
A21G U25A U26A U51A A65U A75G	0.05
A21G U25A U78A	0.24
A21G U25C A47G A57G U78C	0.05
A21G U25C A57G U60C A64U C79U	0.06
A21G U25C C59U U60A	0.42
A21G U25C G30A U66C U72C	0.36

Variant	self-cleavage
A21G U25C G46U	0.05
A21G U25C U31C G33A U41C A65G U66G	0.08
A21G U25C U31G	0.49
A21G U25C U41A A64G	0.21
A21G U25C U48C	0.23
A21G U25C U51C A64G U69C	0.19
A21G U25C U51C U54A	0.39
A21G U25C U54C A64G	0.14
A21G U25C U60A U78C	0.2
A21G U25C U67C U69C U74C	0
A21G U26A A28G U60C	0.16
A21G U26A A35G A64G	1.2
A21G U26A A64G	0.24
A21G U26A U31C U43C A45G U74G	0.07
A21G U26A U31C U66C	0.49
A21G U26A U43C	0.35
A21G U26C A35G A47G U58A	0.26
A21G U26C A35U	0.16
A21G U26C A35U U69A U72C	0.07
A21G U26C A64U	0.27
A21G U26C A75G	0.25
A21G U26C A77G	0.16
A21G U26C C32G A47G U48C U72A U80C	0.03
A21G U26C C40U U41C A47G U48C G52U	0.09

Variant	self-cleavage
A21G U26C G42U U54A U67A	0.07
A21G U26C U31A U43C U60C	0.07
A21G U26C U31C U48A U67G	0.05
A21G U26C U43C U66C U69A	0.38
A21G U26C U49C U69C	0.08
A21G U26C U54A A57G U80C	0.2
A21G U26C U54C A75U	0.13
A21G U26C U72A	0.22
A21G U26C U72C	0.37
A21G U31A C32U A47G U80C	0.11
A21G U31A U49C U54C A56G	0.28
A21G U31A U49G U58C A64G U67C U72C	0.03
A21G U31C C40U A64U	0.13
A21G U31C G36U U49C A56G U66G	0.06
A21G U31C U76A	0.24
A21G U31G A65G	0.25
A21G U31G C40U A45U G53U U80C	0.11
A21G U31G U41C U60C	0.08
A21G U41A C59A	0.17
A21G U41A U48A	0.15
A21G U41A U48C U60C U69C	0.27
A21G U41A U49C G73A U80G	0.34
A21G U41A U51G G63A	0.11
